The list shows a part of the results. Sequences were assembled here from the parent chain. Values near 0.05 are background.
B1: TEV protease; numbered along this chain (parent)
chain: MGESLFKGPRDYNPISSSICHLTNESDGHTTSLYGIGFGPFIITNKHLFRRNNGTLVVQSLHGVFKVKDTTTLQQHLVDGRDMIIIRMPKDFPPFPQKLKFREPQREERICLVTTNFQTKSMSSMVSDTSCTFPSGDGIFWKHWIQTKDGQCGSPLVSTRDGFIVGIHSASNFTNTNNYFTSVPKNFMELLTNQEAQQWVSGWRLNADSVLWGGHKVFMVKPEEPFQPVKEATQL

Variants of: B1
Assay: raw area under fraction-flipped curve 0-4 h after induction (AUC4h, not background-subtracted), DNA-recorder readout of cleavage of the substrate (dimensionless); higher = more cleavage of the substrate by the protease variant
Conditions: temperature: 34 °C; time window: 0-4 h after rhamnose induction
Procedure: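 In vivo DNA recorder in E. coli TOP10(DE3) ΔrhaA at 34 °C. Each TEVp single-site mutant (parent TEVp 0) is paired with a single-site variant of the 7-mer TEVs (canonical ENLYFQ|S). The substrate sits between flexible linkers in a Bxb1-sfGFP-TEVs-SsrA fusion, so cleavage stabilises Bxb1 and speeds flipping of a recombination array, read by NGS. The value is the raw area under the fraction-flipped curve over 0-4 h after rhamnose induction (AUC4h), with ≥20 reads per time point. It is not background-subtracted; inactive controls average about 0.047.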
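Further: Bxb1 expression induced with 0.2% (w/v) L-rhamnose at OD600 near 0.5, cultures sampled hourly, flipped fraction per protease–substrate barcode pair counted by paired-end Illumina sequencing.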

Variant | area with substrate ENLYFQA | area with substrate ENLYFQC | area with substrate ENLYFQD | area with substrate ENLYFQI | area with substrate ENLYFQK | area with substrate ENLYFQL | area with substrate ENLYFQM | area with substrate ENLYFQN | area with substrate ENLYFQP | area with substrate ENLYFQQ | area with substrate ENLYFQR | area with substrate ENLYFQS | area with substrate ENLYFQT | area with substrate ENLYFQW | area with substrate ENLYFQY | area with substrate ENLYFQG | area with substrate ENLYFQH | area with substrate ENLYFQV | area with substrate ENLYFQF
E189T | 0.0855 | 0.13 | 0.073 | 0.0711 | 0.0732 | 0.056 | 0.0891 | 0.0878 | 0.0591 | 0.0657 | 0.0441 | 0.102 | 0.0648 | 0.0496 | 0.094 |  |  |  | 
N175G | 0.107 |  |  |  | 0.0641 | 0.0623 |  | 0.0642 |  |  | 0.0371 | 0.102 |  | 0.0541 | 0.0683 | 0.11 | 0.0792 | 0.0566 | 
F187Y | 0.0647 |  | 0.0525 | 0.0564 | 0.0557 | 0.0639 | 0.0832 | 0.0612 | 0.0388 | 0.076 | 0.0559 | 0.0755 | 0.0581 | 0.0711 |  | 0.0644 | 0.0768 | 0.046 | 0.0528
A170Y | 0.0565 | 0.0409 |  |  | 0.0692 |  | 0.0515 |  |  |  |  | 0.0563 |  |  |  | 0.0739 |  |  | 
K185C | 0.0929 |  | 0.0709 | 0.0687 |  | 0.0633 |  |  |  |  | 0.0857 | 0.109 | 0.0748 | 0.0503 |  | 0.101 |  |  | 0.0817
N177C | 0.207 | 0.178 | 0.0857 |  |  |  | 0.11 | 0.107 |  | 0.086 | 0.067 | 0.151 |  | 0.0835 |  | 0.15 |  | 0.0625 | 
N177P | 0.0555 | 0.0698 |  | 0.0516 | 0.0605 | 0.0551 | 0.0813 | 0.0579 | 0.0607 |  | 0.0547 | 0.0641 | 0.0674 | 0.0566 | 0.0591 | 0.0536 | 0.0504 | 0.0562 | 

From the supplement of paper PMC12217912
